The source gives no read counts; variants with many changes may rest on few reads.
B1: OR4K15 (parent)
chain: GUUAACGGUCAUAGGCCAUGGAAACUAGGAGCACCAUUUCGCUGCCAGUGAAGAAAUGAACAAAGAAAAUCUGGGCCAGGCAGGCAUCAAAAGAAAUAGUCUUGCGCUCAACCAGAAAGUCUGUAAUCAUUUUAAGGGUA

Variants of: B1
Experiment: self-cleavage, relative activity (ratio to wild type); higher = more cleavage; in vitro, sequencing; the parent is a self-cleaving ribozyme

Question: Which self-cleavage does the source give for A5G A68G U102A here?
Answer: 1.42

Question: Which self-cleavage does the source give for A5G C46U U72C here?
Answer: 0.29

Question: With A5G A22G A52G A67G as the variant, how does the self-cleavage read?
Answer: 1.29

Question: With A5G A96G A129U as the variant, how does the self-cleavage read?
Answer: 0.44

Question: Which self-cleavage does the source give for A5G U19C A129G here?
Answer: 0.51

Question: For A5G U9C A89G A94G U100C, which self-cleavage is on record?
Answer: 1.48

Question: For A4G U43C A52G A111G, which self-cleavage is on record?
Answer: 0.13

Question: For A5U A59G A82U, which self-cleavage is on record?
Answer: 0.65

Question: For A5G U19A U108C, which self-cleavage is on record?
Answer: 0.06

Question: For A5G U19A C25G A94G A110G, which self-cleavage is on record?
Answer: 0.15

Question: With A5G A33G A52G C128A as the variant, how does the self-cleavage read?
Answer: 1.07

Question: Which self-cleavage does the source give for A4G G75A U132C here?
Answer: 0.11

Question: For A5G U9A A18G A90G, which self-cleavage is on record?
Answer: 1.13

Question: For A5G A30U A36U U38C A51G U57A A89C A94G A140G, which self-cleavage is on record?
Answer: 1.06

Question: For A5U A13U C113U U139C, which self-cleavage is on record?
Answer: 0.22

Question: With A5G A22G A51G A60U U122A as the variant, how does the self-cleavage read?
Answer: 1.59

Question: Which self-cleavage does the source give for A5G A66G U72C here?
Answer: 0.23

Question: Which self-cleavage does the source give for A4G U49A A60G A78G here?
Answer: 0.63

Question: With A5U G7A U9C U38C A129G U131A as the variant, how does the self-cleavage read?
Answer: 0.93

Question: With A5G U57C A118G A135G as the variant, how does the self-cleavage read?
Answer: 0.77

Question: With A5G A111G A116G U131C as the variant, how does the self-cleavage read?
Answer: 0.01

Question: For A5G U9A A54C A62G C128U, which self-cleavage is on record?
Answer: 1.39

Question: With A4G U9C U19C A55U A89G as the variant, how does the self-cleavage read?
Answer: 1.43

Question: For A5G A56G U87A, which self-cleavage is on record?
Answer: 0.94

Question: With A5G A55G U57G as the variant, how does the self-cleavage read?
Answer: 0.94

Question: Which self-cleavage does the source give for A5C A68G A114G U120C U127C here?
Answer: 0.11

Question: Which self-cleavage does the source give for A5G U19C U57C U122C here?
Answer: 1

Question: For A5G A24G G58A U70C A82G, which self-cleavage is on record?
Answer: 0.2

Question: Which self-cleavage does the source give for A5G A54G A56G A78U U127C here?
Answer: 0.11

Question: With A5G A24U G44A A60G A82G as the variant, how does the self-cleavage read?
Answer: 0.78

Question: With A5G A13U A68C A126G as the variant, how does the self-cleavage read?
Answer: 0.47

Question: With A5G A91G U120C as the variant, how does the self-cleavage read?
Answer: 0.57

Question: Which self-cleavage does the source give for A5G A94G A95U A111G here?
Answer: 0.06

Question: For A5G C6U A47G A60G A66G, which self-cleavage is on record?
Answer: 1.02

Question: For A5G A82G U120C, which self-cleavage is on record?
Answer: 0.5

Question: With A5G A36G U39A A90G as the variant, how does the self-cleavage read?
Answer: 0.74

Question: With A4U A91G A94G U103C A110G as the variant, how does the self-cleavage read?
Answer: 0.07

Question: For A5G A54G A135U, which self-cleavage is on record?
Answer: 0.6

Question: For A5U A54G C88A U132C, which self-cleavage is on record?
Answer: 1.25

Question: With A5G C10U U100C U108C U124C as the variant, how does the self-cleavage read?
Answer: 0

Question: For A4U A5G A82G, which self-cleavage is on record?
Answer: 1.19

Question: For A5G A33G A47U A51G A63U U87C A129C, which self-cleavage is on record?
Answer: 0.26

Question: Which self-cleavage does the source give for A5U U12A A67G here?
Answer: 1.35

Question: With A5G U102C U108C as the variant, how does the self-cleavage read?
Answer: 0.11

Question: Which self-cleavage does the source give for A5U A59G A89U A98G U102A U103A C105A A134G here?
Answer: 0.01

Question: With A5G A60G A68G as the variant, how does the self-cleavage read?
Answer: 1.14

Question: Which self-cleavage does the source give for A4G U9C A24G A47G A51U A56G U70C U108C here?
Answer: 0.08

Question: For A4G U12C A96C A111G, which self-cleavage is on record?
Answer: 0

Question: With A5G A36G A51U U97C as the variant, how does the self-cleavage read?
Answer: 0.76

Question: Which self-cleavage does the source give for A5G A23G U87C A111G U127C A129U here?
Answer: 0.02

Question: For A5U U38C A90U, which self-cleavage is on record?
Answer: 1.13

Question: Which self-cleavage does the source give for A5G A78U C105A here?
Answer: 0.03

Question: Which self-cleavage does the source give for A4G U43A A59G A62G U100C here?
Answer: 0.89

Question: Which self-cleavage does the source give for A5G U72A A129U here?
Answer: 0.21

Question: With A5G A66U U100A A110G as the variant, how does the self-cleavage read?
Answer: 0.06

Question: Which self-cleavage does the source give for A5G U9A A62G A86G A92G here?
Answer: 0.95

Question: For A5G A24G A59U U108A, which self-cleavage is on record?
Answer: 0.04

Question: Which self-cleavage does the source give for A5U U9C U72C A91G A92G here?
Answer: 0.28

Question: Which self-cleavage does the source give for A5G G50A A54U A126U here?
Answer: 0.71

Question: With A5U A36G A126G as the variant, how does the self-cleavage read?
Answer: 1.09

Question: Which self-cleavage does the source give for A5G C101U C113U A117G U120A U130C here?
Answer: 0

Question: For A5G G29C U38C A95U A96G, which self-cleavage is on record?
Answer: 0.62

Question: Which self-cleavage does the source give for A5U A30G A36U G44A here?
Answer: 1.02

Question: For A5G A22G C71U A78U U122C A125G, which self-cleavage is on record?
Answer: 0

Question: With A4G U39C U57C as the variant, how does the self-cleavage read?
Answer: 0.19

Question: For A5G A11G G74A, which self-cleavage is on record?
Answer: 0.26

Question: With A5G C45A A82U U122C U130C as the variant, how does the self-cleavage read?
Answer: 0.12

Question: Which self-cleavage does the source give for A5G A56G A67G A94G here?
Answer: 0.62

Question: For A5C U19A A59G, which self-cleavage is on record?
Answer: 1.51

Question: Which self-cleavage does the source give for A5G G7U A78G A89G here?
Answer: 0.21

Question: With A5C A67G U132C as the variant, how does the self-cleavage read?
Answer: 1.42

Question: With A5G C32U U38A U87C U100C A111G as the variant, how does the self-cleavage read?
Answer: 0.04

Question: Which self-cleavage does the source give for A5G A23G A52G A94G here?
Answer: 0.69

Question: Which self-cleavage does the source give for A5G A22U C32U A33U U43A C61G A69U U124A here?
Answer: 0.63

Question: With A5G A11U U49C as the variant, how does the self-cleavage read?
Answer: 1.02

Question: Which self-cleavage does the source give for A5G G8A U37A U43C U127C G137A here?
Answer: 1.23

Question: For A5U A60G U130C, which self-cleavage is on record?
Answer: 0.13

Question: For A5G U72C A98U U102A, which self-cleavage is on record?
Answer: 0.17

Question: Which self-cleavage does the source give for A5G A62G A96G here?
Answer: 1.86

Question: Which self-cleavage does the source give for A4U A68G U124C here?
Answer: 1.26

Question: With A5G U49C A125C as the variant, how does the self-cleavage read?
Answer: 0.26

Question: Which self-cleavage does the source give for A5U A68G A96U U108A A135G here?
Answer: 0.01

Question: With A5C U39G A66G A126G C128U A129G as the variant, how does the self-cleavage read?
Answer: 0.33

From the RNAGym collection of RNA variant scans (doi:10.7554/elife.90254)
